Screen size: about 420,000 compounds; about 64,000 (15%) were called active. The inconclusive results got no clear call from the source; some entries with a clear call stand among them for comparison. Calls follow the shape of the dose curve; as a rule, active = well fitted inhibition curve with a large enough effect; inconclusive = small, poorly fitted or top-dose-only effect; inactive = flat fitted curve, though single readings scatter. No potency is given beside an inconclusive call; the fits are too rough.
Assay: qHTS for Inhibitors of human tyrosyl-DNA phosphodiesterase 1 (TDP1): qHTS in cells in absence of CPT; also: nearly all actives have a fitted effect of over 55% in size
Details: DT40 Tdp1-/- hTDP1 cells, no CPT, ATP luminescence, 48 h; activity change, negative = growth inhibition: at 46.2 µM (top of the series) unless noted
Method in brief: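 A cellular qHTS used chicken DT40 cells lacking endogenous Tdp1 but carrying stably transfected human TDP1. Compounds were applied without camptothecin, and cell growth kinetics were judged by ATP-dependent luminescence after ≥48 hr.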
% is scaled to controls: 0 for no effect and ±100 for the full control effect; potency is read from the fitted curve at half-maximal effect; tags tell the direction and shape of the fitted curve.

Q: Which Potency does the source give for `C#CC[N+](C)(C)CCCCCCCC` here?
A: Its Potency is inconclusive [inhibitor, single point].

Q: For `COc1cccc(/C=N/NC(=O)c2cc3cc([N+](=O)[O-])ccc3s2)c1O`, which Potency is on record?
A: The Potency was active: 0.461 µM.

Q: Which Potency does the source give for `CC(C)C(=O)NC(NC(=S)Nc1cccc2cccnc12)C(Cl)(Cl)Cl` (stereo unspecified) here?
A: The Potency was active: 16.4 µM.

Q: Which Potency does the source give for `CCC(C)NC(=O)c1sc2nc(C)c(C(=O)Nc3ccc(C)cc3C)c(-c3ccccc3Cl)c2c1N` (stereo unspecified) here?
A: Its Potency is inconclusive [inhibitor, single point].

Q: Which Potency does the source give for `CCN(CC)c1ccc(-c2nc(-c3ccco3)no2)cc1[N+](=O)[O-]` here?
A: Its Potency is active: 25.9 µM.

Q: With `O=C1CC(C(=O)N2CCN(c3ccccc3O)CC2)CN1Cc1ccccc1` (stereo unspecified) as the molecule, how does the Potency read?
A: Its Potency is “inactive”.

Q: With `COc1ccc(S(=O)(=O)N2CCCCC2c2cc(C(=O)NCc3ccc(F)cc3)no2)cc1` (stereo unspecified) as the molecule, how does the Potency read?
A: The Potency was inconclusive [inhibitor, single point].

Q: With `CSc1ccccc1NC(=O)CN(C)C(=O)c1ccc(NC(=O)c2cccs2)cc1` as the molecule, how does the Potency read?
A: The Potency was inconclusive [inhibitor, single point].

Q: With `CCOC(=O)c1cccc2c1N[C@@H](c1ccc(F)cc1)[C@H]1CC=C[C@@H]21` as the molecule, how does the Potency read?
A: The Potency was inconclusive [inhibitor, single point].

Q: With `CN(C)C(=O)C1=NOC2(C1)C(=O)Nc1ccccc12` (stereo unspecified) as the molecule, how does the Potency read?
A: The Potency was “inactive”.

Q: Which Potency does the source give for `Cn1c(=O)c2cc(NC(=O)NCc3ccc(F)cc3)ccc2n1C/C=C/c1ccccc1` here?
A: The Potency was active: 9.2 µM.

Q: For `COc1cc(C(=O)NCC(c2ccco2)N2CCc3ccccc3C2)cc(OC)c1OC` (stereo unspecified), which Potency is on record?
A: The Potency was inconclusive [inhibitor, single point].

Q: Which Potency does the source give for `CCN1C(=O)[C@H]2[C@@H](c3ccc(C(F)(F)F)cc3)N[C@]3(CCCN(Cc4ccc(F)cc4)C3=O)[C@H]2C1=O` here?
A: Its Potency is active: 9.2 µM.

Q: For `COc1ccc(/C=N/NC(=O)c2ccc[nH]2)cc1`, which Potency is on record?
A: The Potency was inconclusive [inhibitor, single point].

Q: With `Cn1cc(S(=O)(=O)N2CCCCC2)cc1C(=O)Nc1cccc(C#N)c1` as the molecule, how does the Potency read?
A: Its Potency is inconclusive [inhibitor, partial curve].

Q: For `COCCCC1CCN(C(=O)C2CCC(=O)N(CC3CCCCC3)C2)CC1` (stereo unspecified), which Potency is on record?
A: Its Potency is inconclusive [inhibitor, single point].

Q: With `CC(=O)c1ccc(NC(=O)C2Cc3ccccc3CN2C(=O)c2ccccc2)cc1` (stereo unspecified) as the molecule, how does the Potency read?
A: The Potency was inconclusive [inhibitor, single point].

Q: For `O=C(CC(c1ccccc1)c1ccccc1)Nc1ccc2c(c1)OCCO2`, which Potency is on record?
A: Its Potency is inconclusive [inhibitor, single point].

Q: For `O=S(=O)(Nc1nc2ccccc2nc1N1CCN(c2ccccc2)CC1)c1ccc(F)cc1`, which Potency is on record?
A: The Potency was inconclusive [inhibitor, single point].

Q: Which Potency does the source give for `CCOc1ccc(NC(=O)c2ccc(F)c(S(=O)(=O)N3CCN(c4ccccn4)CC3)c2)cc1` here?
A: Its Potency is active: 16.4 µM.

Q: Which Potency does the source give for `O=C(C1CCC(CNc2nc(=S)[nH]c3ccccc23)CC1)N1CCN(c2ccccn2)CC1` (stereo unspecified) here?
A: The Potency was active: 18.4 µM.

Q: Which Potency does the source give for `COc1ccc(CCNC(=O)c2cccc(C(=O)NCCc3ccc(OC)cc3)n2)cc1` here?
A: The Potency was inconclusive [inhibitor, single point].

Q: With `COc1cccc(CNS(=O)(=O)c2cc3c4c(c2)CCC(=O)N4CCC3)c1` as the molecule, how does the Potency read?
A: Its Potency is inconclusive [inhibitor, partial curve].

Q: Which Potency does the source give for `CCN1CCc2c(sc(NC(=O)c3ccc(S(=O)(=O)N4CCOCC4)cc3)c2C(=O)OC)C1` here?
A: The Potency was inconclusive [inhibitor, partial curve, poor fit].

Q: Which Potency does the source give for `COc1cc2nc(N3CCCN(C)CC3)nc(NC3CC3)c2cc1OC` here?
A: Its Potency is active: 10 µM.

Q: With `CC(/C=C/c1ccc2c(c1)OCO2)=N/NC(=O)CNc1ccc(C)cc1` as the molecule, how does the Potency read?
A: Its Potency is inconclusive [inhibitor, single point].

Q: Which Potency does the source give for `COc1ccc(C(=O)NC2(C(F)(F)F)NC(=O)N(CCCc3ccccc3)C2=O)c(OC)c1OC` (stereo unspecified) here?
A: The Potency was inconclusive [inhibitor, single point].

Q: Which Potency does the source give for `Nc1nc(NCCOCCO)nc(NCc2ccccc2)c1[N+](=O)[O-]` here?
A: Its Potency is “inactive”.

Q: With `CCOc1ccc2[nH]c(=O)c(CN(Cc3cccs3)C(CC)c3nnnn3C(C)(C)CC)cc2c1` (stereo unspecified) as the molecule, how does the Potency read?
A: Its Potency is active: 18.4 µM.

Q: Which Potency does the source give for `O=C1Nc2cccc3c2N(CCC3)C2=C1CCC2` here?
A: Its Potency is inconclusive [inhibitor, single point].

Q: Which Potency does the source give for `COc1cc(NC(=O)CSc2nnc3ccc(-c4cccnc4)nn23)cc(OC)c1` here?
A: Its Potency is “inactive”.

Q: For `COc1ccc(Oc2c(Cl)cnn(-c3ccccc3)c2=O)cc1`, which Potency is on record?
A: Its Potency is inconclusive [inhibitor, single point].

Q: For `Cc1ccc(S(=O)(=O)N2C[C@@H]3CCCC[C@@H]3[C@@H](C)[C@H]2c2cn(Cc3ccccc3)c3ccccc23)cc1`, which Potency is on record?
A: Its Potency is active: 7.31 µM.

Q: Which Potency does the source give for `O=C(Nc1ccc(S(=O)(=O)Nc2ncccn2)cc1)c1cc([N+](=O)[O-])ccc1Cl` here?
A: The Potency was “inactive”.

Q: With `Cc1ccc(CNC(=O)Cn2c(=O)n(Cc3ccc(F)cc3)c(=O)c3sc4ccccc4c32)cc1` as the molecule, how does the Potency read?
A: The Potency was inconclusive [inhibitor, partial curve, poor fit].

Q: With `CCCCOc1ccc(OCCCC)c2c1NC1(N2)C(=O)N(C(C)=O)c2ccccc21` as the molecule, how does the Potency read?
A: Its Potency is inconclusive [inhibitor, full curve, poor fit].

Q: For `CC1Cc2ccccc2N1C(=O)CSc1ncc(-c2ccc(F)cc2)n1C` (stereo unspecified), which Potency is on record?
A: Its Potency is inconclusive [inhibitor, single point].

Q: For `O=C(Nc1ccc(Br)cc1)c1cccc(N2C(=O)C3C4C=CC(C4)C3C2=O)c1` (stereo unspecified), which Potency is on record?
A: The Potency was inconclusive [inhibitor, partial curve, poor fit].

Q: Which Potency does the source give for `c1ccc2c(c1)CC(N1CCCCC1)c1ccccc1N2` (stereo unspecified) here?
A: The Potency was “inactive”.

Q: For `CCOC(=O)N1CCN(C(=O)CS(=O)(=O)c2cn(Cc3ccccc3C)c3ccccc23)CC1`, which Potency is on record?
A: The Potency was inconclusive [inhibitor, single point].

Q: Which Potency does the source give for `CC1(C)CC2(CC(c3ccccc3F)c3ccc(O)c(O)c3O2)NC(=S)N1` (stereo unspecified) here?
A: Its Potency is active: 23.1 µM.

Q: With `O=C(O)C[C@@H](CNC(=O)COc1ccc2ccc(=O)oc2c1)c1ccc(Cl)cc1` as the molecule, how does the Potency read?
A: Its Potency is “inactive”.

Q: For `CCC(C)NC(=O)CN1C(=O)NC2(CCc3ccccc3C2)C1=O` (stereo unspecified), which Potency is on record?
A: Its Potency is inconclusive [inhibitor, single point].

Q: Which Potency does the source give for `O=C(O)/C=C/C(=O)Nc1ccccc1-c1ccccc1` here?
A: The Potency was active: 10.3 µM.

Q: With `O=S(=O)(Nc1cccc(S(=O)(=O)N2CCCCC2)c1)c1ccc(Cl)s1` as the molecule, how does the Potency read?
A: Its Potency is “inactive”.

Q: With `COc1cccc(/C=C/C(=C2/C(=O)N(c3ccccc3)N=C2C)c2ccccc2)c1OC` as the molecule, how does the Potency read?
A: Its Potency is “inactive”.

Q: With `CN(C1CCCCC1)S(=O)(=O)c1ccc2c(c1)c(=O)c(C(=O)O)cn2C` as the molecule, how does the Potency read?
A: Its Potency is “inactive”.

Q: For `CC(O)CNc1ccc(-c2n[nH]c(=O)c3ccccc23)cc1[N+](=O)[O-]` (stereo unspecified), which Potency is on record?
A: The Potency was inconclusive [inhibitor, partial curve, poor fit].

Q: With `CC(C)(C)Nc1nc(Cl)nc(NCCN2CCOCC2)n1` as the molecule, how does the Potency read?
A: The Potency was inconclusive [inhibitor, single point].

Q: Which Potency does the source give for `CCCN(C(=O)Cn1ncc2c([nH]c3ccc(C)cc32)c1=O)c1ccccc1C` here?
A: Its Potency is inconclusive [inhibitor, partial curve, poor fit].

Q: For `COc1ccc(OC)c(C(=O)NC(CC(N)=O)c2ccc(NCCOc3ccccc3)c([N+](=O)[O-])c2)c1` (stereo unspecified), which Potency is on record?
A: The Potency was inconclusive [inhibitor, single point].

Q: Which Potency does the source give for `CC(C)NC(=O)c1ccc(COc2ccc(C(C)(C)C)cc2)o1` here?
A: The Potency was active: 13 µM.

Q: For `Cc1ccc(-c2nc(CS(=O)(=O)CC(=O)NCc3ccc4c(c3)OCO4)c(C)o2)cc1`, which Potency is on record?
A: Its Potency is inconclusive [inhibitor, single point].

Q: Which Potency does the source give for `O=[N+]([O-])c1cccc(-c2ccc(/C=N/Nc3nc(N4CCCCC4)nc(N4CCCCC4)n3)o2)c1` here?
A: The Potency was inconclusive [inhibitor, single point].

Q: For `Cc1cc(N2C(=O)C(O)=C(C(=O)c3ccc(C)o3)C2c2ccc(OCc3ccccc3)cc2)no1` (stereo unspecified), which Potency is on record?
A: Its Potency is inconclusive [inhibitor, single point].

Q: With `COc1ccc(CCNC(=O)Cc2c(C)c3cc4c(C)coc4c(C)c3oc2=O)cc1` as the molecule, how does the activity change, negative = growth inhibition read?
A: The activity change, negative = growth inhibition was inconclusive: -30% [inhibitor].

Q: With `COc1ccc(C(NC(=O)C2CCN(CCOc3ccc(Cl)cc3)CC2)c2cccs2)cc1` (stereo unspecified) as the molecule, how does the Potency read?
A: The Potency was inconclusive [inhibitor, single point].

Q: With `CCc1nn(-c2ccccc2)c(N)c1-c1ccc(OC)c(OC)c1` as the molecule, how does the Potency read?
A: The Potency was “inactive”.

Q: For `CCc1ccccc1NC(=O)CC1Sc2ccc(C(F)(F)F)cc2NC1=O` (stereo unspecified), which Potency is on record?
A: The Potency was “inactive”.

Q: For `CC1(C)CN(c2ccccc2)C(=O)[C@H]1CC(=O)Nc1ccccc1`, which Potency is on record?
A: The Potency was “inactive”.

Q: With `CCCCSc1nnc2c(n1)OC(C)N(C(C)=O)c1ccccc1-2` (stereo unspecified) as the molecule, how does the Potency read?
A: The Potency was inconclusive [inhibitor, single point].

Q: With `COc1ccc(N2CC(O)=C(c3nc(-c4ccc(F)cc4)cs3)C2=N)cc1Cl` as the molecule, how does the Potency read?
A: Its Potency is inconclusive [inhibitor, partial curve].

Q: Which Potency does the source give for `Cc1cc2cc(C)c3nnc(SCc4ccccn4)n3c2cc1C` here?
A: The Potency was inconclusive [inhibitor, single point].

Q: Which Potency does the source give for `Cc1ccc(-n2nc(C)c(Sc3ccccc3[N+](=O)[O-])c2N)cc1` here?
A: Its Potency is inconclusive [inhibitor, full curve, poor fit].

Q: For `CC(=O)C1=C(O)C=C2Oc3c(C(C)=O)c(O)c(C)c(O)c3C2(C)C1=O` (stereo unspecified), which activity change, negative = growth inhibition is on record?
A: Its activity change, negative = growth inhibition is inactive: 9.93% [at 9.04 µM].

Q: For `O=C(NCCc1ccccc1)c1ccc2c(c1)N(Cc1ccc(F)cc1)C(=O)c1ccccc1S2`, which Potency is on record?
A: The Potency was inconclusive [inhibitor, single point].
